Among all 310,000 compounds or so, about 18,000 (5.8%) were called active. The inconclusive results got no clear call from the source; some entries with a clear call stand among them for comparison. Calls follow the shape of the dose curve; as a rule, active = well fitted inhibition curve with a large enough effect; inconclusive = small, poorly fitted or top-dose-only effect, or another doubt; inactive = no such curve, though single readings can be large or run the other way. Potencies of inconclusive entries are left out as doubtful fits.
test: Primary qHTS for delayed death inhibitors of the malarial parasite plastid, 48 hour incubation; details: P. falciparum luciferase growth in erythrocytes; series mostly up to 28.7 µM
In short: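 Luciferase-expressing parasites in RBCs, 2% Hct / 0.1% parasitemia final; RPMI 1640 + 0.5% Albumax; 37 C, 5% CO2, one generation; luminescence read-out, lower signal = inhibition.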
Potency is read from the fitted curve at half-maximal effect; tags tell the direction and shape of the fitted curve.

Q: With `CC(C)CSc1nc2ccccc2n1CC(N)=O` as the compound, how does the Potency read?
A: inactive

Q: For `CCOc1ccc(/C=N/n2c(-c3ccccc3)n[nH]c2=S)cc1`, which Potency is on record?
A: inactive

Q: With `CCN(CC)S(=O)(=O)c1cccc(-c2nnc(SCc3ncc(-c4ccccc4)o3)n2C)c1` as the compound, how does the Potency read?
A: inconclusive [inhibitor, partial curve]

Q: For `CCc1noc(C)c1C(=O)N1CCN(S(=O)(=O)c2ccc(Br)cc2)CC1`, which Potency is on record?
A: inactive

Q: With `CCCCn1c(N)c(N(CC(C)C)C(=O)COC(=O)Cc2c(C)nc3ccccc3c2C)c(=O)[nH]c1=O` as the compound, how does the Potency read?
A: inconclusive [inhibitor, single point]

Q: For `CCOc1cc(CNCC(O)c2ccccc2)cc(Cl)c1OC` (centres undefined), which Potency is on record?
A: inconclusive [inhibitor, full curve]

Q: With `CCC(C)NC(=O)COC(=O)c1cccnc1Nc1ccccc1F` (centres undefined) as the compound, how does the Potency read?
A: inactive

Q: Which Potency does the source give for `COc1ccc(OC)c(C(=O)/C=C/c2cccnc2)c1` here?
A: inconclusive [inhibitor, partial curve]

Q: Which Potency does the source give for `Cc1ccc(OCC(=O)N2CCC(N3CCCCCC3)CC2)cc1` here?
A: inconclusive [inhibitor, single point]

Q: With `O=C(N/N=C/C(Cl)=C\c1ccccc1)c1cccs1` as the compound, how does the Potency read?
A: inconclusive [inhibitor, full curve]

Q: With `CC(C)C(=O)Nc1ccc(Nc2ccccc2)cc1` as the compound, how does the Potency read?
A: inactive

Q: With `c1ccc(CNc2nnnn2-c2ccccc2)cc1` as the compound, how does the Potency read?
A: inactive

Q: For `Cc1onc(-c2ccccc2)c1C(=O)N/N=C/c1cn(C)c2ccccc12`, which Potency is on record?
A: inconclusive [inhibitor, partial curve, poor fit]

Q: With `O=c1c2c(-c3ccccc3)csc2ncn1/N=C/c1ccc(O)c([N+](=O)[O-])c1` as the compound, how does the Potency read?
A: inconclusive [inhibitor, single point]

Q: Which Potency does the source give for `COc1ccc(S(=O)(=O)N/N=C\c2ccc(OC)c(COc3ccc(C)cc3[N+](=O)[O-])c2)cc1` here?
A: inconclusive [inhibitor, single point]

Q: For `Nn1c(Cc2cccc3ccccc23)nnc1SCc1ccccc1Cl`, which Potency is on record?
A: inconclusive [inhibitor, single point]

Q: Which Potency does the source give for `COc1ccc(S(=O)(=O)N2CCCCC2)cc1NC(=O)CN(C)C1CCCCC1` here?
A: inconclusive [inhibitor, full curve, poor fit]

Q: Which Potency does the source give for `CCCCNC(=O)C1CCC(CNS(=O)(=O)c2c(C)cc(C)cc2C)CC1` (centres undefined) here?
A: inconclusive [inhibitor, partial curve, poor fit]

Q: For `O=C(CCc1ccccc1)OCC(=O)c1ccc([N+](=O)[O-])cc1`, which Potency is on record?
A: inactive

Q: With `c1cc(CN2CCCCC2)cc(OCCCNc2nc3ccccc3s2)c1` as the compound, how does the Potency read?
A: active: 13.5 µM

Q: With `CC(C)CN(CC(C)C)c1ccc(C=C2C(=O)NC(=S)NC2=O)cc1[N+](=O)[O-]` as the compound, how does the Potency read?
A: inconclusive [inhibitor, partial curve, poor fit]

Q: For `CN1CCN(c2ccc(Cl)cc2NC(=O)CC2OC(=O)c3ccccc32)CC1` (centres undefined), which Potency is on record?
A: inconclusive [inhibitor, single point]

Q: For `Cc1ccnc(NC(=O)CCNS(=O)(=O)c2ccc(C)c(C)c2)c1`, which Potency is on record?
A: inactive

Q: With `COc1ccc(S(=O)(=O)Nc2ccc(S(=O)(=O)N3CCCCC3)cc2)cc1C` as the compound, how does the Potency read?
A: inconclusive [inhibitor, full curve, poor fit]

Q: Which Potency does the source give for `COC(=O)C1=Nc2ccccc2/C1=C\c1c(O)n(-c2cc(OC)ccc2OC)c(=O)[nH]c1=O` here?
A: inconclusive [inhibitor, single point]

Q: With `CCOc1ccc(OCC(=O)N2CCC3(CC2)CC(=O)c2ccccc2O3)cc1` as the compound, how does the Potency read?
A: inconclusive [inhibitor, single point]

Q: For `COc1ccc(S(=O)(=O)N2CCOCC2)cc1NC(=O)c1cccs1`, which Potency is on record?
A: inactive

Q: With `O=C(c1ccc(Cl)c(S(=O)(=O)N2CCOCC2)c1)N(c1ccccn1)C1CCCCC1` as the compound, how does the Potency read?
A: inconclusive [inhibitor, partial curve, poor fit]

Q: For `COC(=O)C1=C(C)N=c2s/c(=C/c3cccs3)c(=O)n2C1c1ccc(F)cc1` (centres undefined), which Potency is on record?
A: inconclusive [inhibitor, partial curve]

Q: Which Potency does the source give for `CCN(CC)c1ccc(S(=O)(=O)N2CCCCC2)cc1NC(=O)C1CCC1` here?
A: inconclusive [inhibitor, partial curve, poor fit]

Q: For `CCCCNC(=O)c1sc(=S)n2c1[nH]c(=O)c1ccc(C(=O)NCCc3ccc(OC)c(OC)c3)cc12`, which Potency is on record?
A: inconclusive [inhibitor, partial curve]

Q: Which Potency does the source give for `CN1CCc2nc3ccc(Cl)cc3c(-c3ccccc3Cl)c2C1` here?
A: inconclusive [inhibitor, partial curve, poor fit]

Q: Which Potency does the source give for `CCOC(=O)c1oc2ccccc2c1NC(=O)c1ccc(S(=O)(=O)N(C)C)cc1` here?
A: inconclusive [inhibitor, full curve]

Q: With `Cc1nn(CCN)c(C)c1Cl` as the compound, how does the Potency read?
A: inactive

Q: For `COc1cc(NC(=O)C2C3CCC(O3)C2C(=O)O)cc(OC)c1` (centres undefined), which Potency is on record?
A: inactive

Q: With `CN1CCc2c(sc3ncn4nc(-c5ccccc5O)nc4c23)C1` as the compound, how does the Potency read?
A: inconclusive [inhibitor, single point]

Q: With `O=C(CN1CCN(C(=O)c2ccco2)CC1)Nc1ccccc1` as the compound, how does the Potency read?
A: inactive

Q: With `O=C(NCCC1=CCCCC1)C1CCN(S(=O)(=O)c2ccccc2C(F)(F)F)CC1` as the compound, how does the Potency read?
A: active: 10.4 µM

Q: With `CCOC(=O)CCCCC(=O)c1[nH]c(=O)[nH]c1CSc1nc(C)cc(=O)[nH]1` as the compound, how does the Potency read?
A: inactive

Q: With `CCN1CCN(c2cc(N3CCN(C(=O)c4ccco4)CC3)c3c4c(onc24)-c2ccccc2C3=O)CC1` as the compound, how does the Potency read?
A: inconclusive [inhibitor, partial curve]

Q: With `NS(=O)(=O)c1cc(C(=O)OCC(=O)Nc2ccc(N3CCCCC3)cc2)ccc1Cl` as the compound, how does the Potency read?
A: inactive

Q: For `Cc1c(C(=O)NC2CCN(Cc3ccccc3)C2)oc2c(Cl)cccc12` (centres undefined), which Potency is on record?
A: inactive

Q: Which Potency does the source give for `COc1ccc(-n2nc(C(=O)NCC(=O)N3CCCC(C)C3)c3ccccc3c2=O)cc1Cl` (centres undefined) here?
A: inconclusive [inhibitor, single point]

Q: Which Potency does the source give for `c1ccc(CSc2nnc3ccc(-c4ccncc4)nn23)cc1` here?
A: inconclusive [inhibitor, full curve, poor fit]

Q: Which Potency does the source give for `O=C(Cc1cccs1)N1CCC(c2nc3c(nnn3Cc3ccccc3)c(=O)[nH]2)CC1` here?
A: inconclusive [inhibitor, single point]

Q: Which Potency does the source give for `CCN(CC)S(=O)(=O)c1cnccc1N1CCN(c2cccc(Cl)c2)CC1` here?
A: active: 3.29 µM

Q: For `COc1ccc(C2Nc3ccccc3C(=O)N2Cc2ccccc2)cc1` (centres undefined), which Potency is on record?
A: inconclusive [inhibitor, partial curve]

Q: Which Potency does the source give for `Cc1ccc(-c2csc(NC(=O)C[n+]3cc(-c4ccccc4)n4c3CCC4)n2)cc1` here?
A: inconclusive [inhibitor, single point]

Q: With `CC(=O)NNC(=O)CN1C(=O)/C(=C/c2ccccc2)SC1=S` as the compound, how does the Potency read?
A: inactive

Q: Which Potency does the source give for `O=C(NC1CCN(C(=S)NCc2ccco2)CC1)C1CCCCC1` here?
A: inactive

Q: For `O=C(c1ccccc1O)N1N=C(c2ccccc2)CC1(O)C(F)(F)F` (centres undefined), which Potency is on record?
A: inactive

Q: Which Potency does the source give for `Cc1cc(NC(=O)CSCC(=O)Nc2cc(C(F)(F)F)ccc2N2CCCC2)no1` here?
A: inconclusive [inhibitor, single point]

Q: For `COc1ccc(N2C(=O)c3ccccc3NC2(C)C)cc1`, which Potency is on record?
A: inactive

Q: Which Potency does the source give for `O=c1cc(C(Cl)(Cl)Cl)oc2c1ccc1ccccc12` here?
A: active: 0.131 µM

Q: With `CCS(=O)(=O)C1=NN2C(=N)/C(=C\c3ccc(OC(=O)c4ccco4)c(Br)c3)C(=O)N=C2S1` as the compound, how does the Potency read?
A: inactive

Q: Which Potency does the source give for `Cc1cc(C)c(NC(=O)c2oc3ccccc3c2COc2ccccc2)c(C)c1` here?
A: inconclusive [inhibitor, single point]

Q: With `Cc1cc(/C=N/N2CCN(C)CC2)c(C)n1-c1ccccc1F` as the compound, how does the Potency read?
A: inconclusive [inhibitor, single point]

Q: With `COc1ccc(C(=O)NCc2ccc3c(c2)cc(C)n3C)cc1OC` as the compound, how does the Potency read?
A: inconclusive [inhibitor, single point]

Q: Which Potency does the source give for `O=C(NCc1ccccc1CN1CCCC1)c1cccc(N2CCCC2=O)c1` here?
A: inconclusive [inhibitor, partial curve]

Q: With `Cc1ccc(NC(=O)CN(C)C(=O)c2cccnc2Nc2cccc(C(F)(F)F)c2)cc1` as the compound, how does the Potency read?
A: inconclusive [inhibitor, single point]

Q: Which Potency does the source give for `CCC(=Nc1ccc(OC)cc1OC)c1c(O)n(C2CCCCC2)c(=O)[nH]c1=O` here?
A: active: 7.38 µM

Q: Which Potency does the source give for `CN(Cc1ccc(F)cc1)C(=O)c1ccc(NS(=O)(=O)c2ccccc2)cc1` here?
A: inconclusive [inhibitor, partial curve, poor fit]

Q: For `N=C(N)c1c(O)n(C2CCCCC2)c(=O)n(C2CCCCC2)c1=O`, which Potency is on record?
A: inconclusive [inhibitor, single point]

Q: For `O=C(COc1ccccc1)N(Cc1cccc(F)c1)C1CCS(=O)(=O)C1` (centres undefined), which Potency is on record?
A: inconclusive [inhibitor, partial curve, poor fit]

Q: Which Potency does the source give for `O=c1cc(CSc2nnc(-c3ccco3)o2)c2ccccc2[nH]1` here?
A: inconclusive [inhibitor, partial curve, poor fit]

Q: Which Potency does the source give for `O=C(Nc1ccccc1NS(=O)(=O)c1ccc(F)cc1)C1CCC1` here?
A: inconclusive [inhibitor, single point]

Q: With `O=C(CSc1ncn[nH]1)NCCOc1ccccc1` as the compound, how does the Potency read?
A: inactive

Q: For `COc1ccc(CNC(=O)[C@H](C)N2C(=O)N3CCc4c([nH]c5ccccc45)[C@@]3(C)C2=O)cc1OC`, which Potency is on record?
A: inconclusive [inhibitor, partial curve]

Q: For `CCc1c(C)nc2cc(-c3ccccc3)[nH]n2c1=O`, which Potency is on record?
A: inconclusive [inhibitor, single point]

Source: PubChem BioAssay AID504832 (National Center for Advancing Translational Sciences (NCATS), 2011)
